# The BET-seq Pho4 binding data (Le et al. 2018)
# Some of the results follow. These are noisy estimates, calculated here from bound and input reads.
# Molecular target: T1, Pho4 (S. cerevisiae) (UniProt P07270)
# T1 sequence: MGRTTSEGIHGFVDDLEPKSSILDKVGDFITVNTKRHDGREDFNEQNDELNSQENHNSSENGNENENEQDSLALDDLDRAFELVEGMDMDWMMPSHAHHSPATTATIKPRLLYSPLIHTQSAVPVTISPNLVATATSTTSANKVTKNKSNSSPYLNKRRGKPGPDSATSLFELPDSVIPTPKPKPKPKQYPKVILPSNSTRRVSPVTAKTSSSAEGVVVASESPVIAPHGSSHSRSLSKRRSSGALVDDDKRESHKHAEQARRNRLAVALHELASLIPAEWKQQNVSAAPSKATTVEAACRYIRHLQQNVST
# Assay: relative binding free energy (BET-seq); higher = weaker binding
# Conditions: reference: library average
row,Sequence,relative binding free energy
1,TTAGTCACGTGCAGGA,0.18 kcal/mol
2,ATGTGCACGTGGTTGT,-0.14 kcal/mol
3,AGGTCCACGTGTATTT,-0.06 kcal/mol
4,GGGGGCACGTGGGCAC,-0.25 kcal/mol
5,TGTGTCACGTGCGGAA,0.11 kcal/mol
6,GCGAGCACGTGGTGGT,-0.13 kcal/mol
7,CAAGGCACGTGGTATT,-0.11 kcal/mol
8,CTGTACACGTGTGTTG,0.11 kcal/mol
9,AGTCGCACGTGTTTGT,-0.02 kcal/mol
10,TTAAGCACGTGGACGG,-0.19 kcal/mol
11,CAGGGCACGTGGTTAG,-0.13 kcal/mol
12,CACTGCACGTGGGGGT,-0.25 kcal/mol
13,AGTAGCACGTGTGCGG,-0.02 kcal/mol
14,ATATGCACGTGTGCAT,0.05 kcal/mol
15,TAATGCACGTGGATGT,0.04 kcal/mol
16,GTGTGCACGTGAGGAC,0.26 kcal/mol
17,GGTATCACGTGGCGTG,0.12 kcal/mol
18,GCTATCACGTGTTGGT,0.24 kcal/mol
19,ACGGTCACGTGCGGTT,0.11 kcal/mol
20,ATGCGCACGTGGGCGG,-0.26 kcal/mol
21,AGTGTCACGTGTAGAC,0.05 kcal/mol
22,GTATTCACGTGGGAGA,0.14 kcal/mol
23,GTTCTCACGTGGTTAT,0.01 kcal/mol
24,CCAGGCACGTGTGGTT,-0.02 kcal/mol
25,TGGGACACGTGTAGCT,0.09 kcal/mol

row,Sequence,relative binding free energy
1,ATTCGCACGTGAGGTA,0.13 kcal/mol
2,TTTGGCACGTGCTCAG,-0.28 kcal/mol
3,TGTGGCACGTGCGTTG,-0.16 kcal/mol
4,CGAAGCACGTGGAGTG,-0.16 kcal/mol
5,ACGGTCACGTGTTTCG,0.19 kcal/mol
6,GGGTTCACGTGAACGG,0.44 kcal/mol
7,CAGGTCACGTGATGAT,0.42 kcal/mol
8,TTGAGCACGTGAGTGT,0.08 kcal/mol
9,GTATGCACGTGGCTGT,-0.06 kcal/mol
10,AGTGACACGTGTCGTT,-0.05 kcal/mol
11,ATGGGCACGTGATATT,-0.03 kcal/mol
12,TTTGTCACGTGCTTGG,0.08 kcal/mol
13,GTACTCACGTGGGGTA,0.01 kcal/mol
14,TATAACACGTGTCAGT,0.09 kcal/mol
15,TAGGGCACGTGTGTTG,0 kcal/mol
16,TGTGGCACGTGTTGTA,-0.11 kcal/mol
17,GGTTTCACGTGAGATC,0.49 kcal/mol
18,TTTGACACGTGCGCTT,-0.05 kcal/mol
19,GGTTGCACGTGGCTGT,0.02 kcal/mol
20,GGTATCACGTGTGATC,0.33 kcal/mol
21,TAATTCACGTGTGAAG,0.26 kcal/mol
22,GTGGTCACGTGGGAGC,-0.07 kcal/mol
23,TTTTTCACGTGAAAGG,0.39 kcal/mol
24,AGTGGCACGTGGAGAT,0.02 kcal/mol
25,TGGGACACGTGCGGGG,0.07 kcal/mol

row,Sequence,relative binding free energy
1,TTGGGCACGTGGCATT,-0.07 kcal/mol
2,GGCTTCACGTGTGCGA,0.46 kcal/mol
3,TATGTCACGTGTCCTG,0.19 kcal/mol
4,GGTGTCACGTGGCGTG,0.07 kcal/mol
5,TTTGTCACGTGGACTA,0.08 kcal/mol
6,ACGGGCACGTGTGGTT,-0.01 kcal/mol
7,AAATGCACGTGGAGTT,0.11 kcal/mol
8,TGGTCCACGTGGTGAA,0.09 kcal/mol
9,GATGTCACGTGACTTT,0.38 kcal/mol
10,TGTTGCACGTGGTCAT,-0.03 kcal/mol
11,AACTTCACGTGTTGGG,0.31 kcal/mol
12,TTGGACACGTGTCGTG,0.11 kcal/mol
13,AATTACACGTGGGTGT,0.09 kcal/mol
14,AGTAACACGTGGTGGG,-0.09 kcal/mol
15,TGACACACGTGGGGGT,-0.21 kcal/mol
16,AGATTCACGTGGGTAA,0.11 kcal/mol
17,GATGCCACGTGTGGGG,-0.09 kcal/mol
18,ATTGACACGTGACGGA,0.2 kcal/mol
19,GTGGTCACGTGTTGCT,0.18 kcal/mol
20,AGGTCCACGTGGGAGG,-0.13 kcal/mol
21,GGAGACACGTGGAGTA,0.01 kcal/mol
22,ATAGGCACGTGGCGAG,-0.16 kcal/mol
23,TGGGTCACGTGATGGC,0.13 kcal/mol
24,TTTGGCACGTGAGGGC,0.2 kcal/mol
25,AGGGACACGTGTATTT,0.01 kcal/mol

row,Sequence,relative binding free energy
1,AGGTGCACGTGTGTCT,-0.2 kcal/mol
2,GAGTACACGTGAGTGG,0.28 kcal/mol
3,ATGGTCACGTGCGAGT,0.13 kcal/mol
4,TCTTGCACGTGATGTT,0.21 kcal/mol
5,CAATTCACGTGGGTGA,0.09 kcal/mol
6,AGGTGCACGTGGGAAG,-0.08 kcal/mol
7,TAAGGCACGTGTTTGA,-0.24 kcal/mol
8,TCTGTCACGTGTAGTG,0.15 kcal/mol
9,GTGGTCACGTGTGGTG,0.23 kcal/mol
10,GTAGGCACGTGAGGGA,0.22 kcal/mol
11,GATGTCACGTGTGCTT,0.31 kcal/mol
12,CTAGTCACGTGTTATT,0.01 kcal/mol
13,TAGTGCACGTGAAGGG,0.2 kcal/mol
14,TCAGTCACGTGTTGGT,0.1 kcal/mol
15,GATTACACGTGTAGTA,0.08 kcal/mol
16,GCGTGCACGTGGTGGG,-0.05 kcal/mol
17,GATGTCACGTGGTCTA,0.11 kcal/mol
18,CTGGGCACGTGGGGAT,-0.16 kcal/mol
19,TGGCTCACGTGTATAT,0.26 kcal/mol
20,CTAGTCACGTGGAATT,0.28 kcal/mol
21,TTAAGCACGTGGTGCG,-0.27 kcal/mol
22,GTAATCACGTGATTTT,0.22 kcal/mol
23,TAGGACACGTGCGGGG,0.01 kcal/mol
24,TTAGACACGTGAGTCT,0.17 kcal/mol
25,GTAATCACGTGTTGTA,0.22 kcal/mol

row,Sequence,relative binding free energy
1,GTGTACACGTGAATTT,0.31 kcal/mol
2,AGATGCACGTGTGCTG,-0.01 kcal/mol
3,ATAGTCACGTGTTACT,0.15 kcal/mol
4,TTTTACACGTGGTGTG,0.11 kcal/mol
5,GGGAGCACGTGGGGGC,-0.18 kcal/mol
6,ACCTTCACGTGTTTGT,0.36 kcal/mol
7,GTATGCACGTGTGGTG,0.08 kcal/mol
8,TGGCTCACGTGCATTG,0.17 kcal/mol
9,AGTTGCACGTGAGCAG,0.17 kcal/mol
10,ACGGGCACGTGAATAG,0.23 kcal/mol
11,CTTGACACGTGCGGGT,-0.07 kcal/mol
12,TGAGTCACGTGGTAAA,0.19 kcal/mol
13,AGGTGCACGTGAGACG,0.18 kcal/mol
14,AGACACACGTGGGAGG,-0.06 kcal/mol
15,TATTTCACGTGATACG,0.3 kcal/mol
16,AGGGTCACGTGGGGCC,-0.06 kcal/mol
17,ACGGGCACGTGATATT,0.1 kcal/mol
18,CGGGGCACGTGCTTGT,-0.24 kcal/mol
19,TTTCTCACGTGGTTAC,0.23 kcal/mol
20,TGTTACACGTGTGTAC,0.07 kcal/mol
21,GATTGCACGTGGTGGG,0.03 kcal/mol
22,TCGGACACGTGGGTGA,-0.21 kcal/mol
23,TATTTCACGTGTTACG,0.21 kcal/mol
24,CGTGTCACGTGGTTTT,0.07 kcal/mol
25,TTGCTCACGTGGTAGC,0.13 kcal/mol

row,Sequence,relative binding free energy
1,GGGCCCACGTGTGGTA,0.12 kcal/mol
2,TCGGGCACGTGGCTGG,-0.14 kcal/mol
3,GCGGACACGTGGAGGT,0.12 kcal/mol
4,CTTTTCACGTGAGTAG,0.14 kcal/mol
5,AGGAGCACGTGGCGTA,-0.24 kcal/mol
6,TAGTACACGTGTCGTA,0.03 kcal/mol
7,GGACACACGTGGTATG,-0.02 kcal/mol
8,ATCAACACGTGAGGTT,0.31 kcal/mol
9,ATTCGCACGTGTTATT,0.09 kcal/mol
10,TTTTACACGTGATGGT,0.21 kcal/mol
11,TTACACACGTGGGGTG,-0.19 kcal/mol
12,GTAGTCACGTGTTAGT,0.13 kcal/mol
13,CATGTCACGTGTAGTC,0.18 kcal/mol
14,GTGGACACGTGCGTAG,0.02 kcal/mol
15,TATTCCACGTGTATGT,0.06 kcal/mol
16,CTTTGCACGTGTTTGT,-0.03 kcal/mol
17,CGCGGCACGTGGCGGG,-0.19 kcal/mol
18,GATAGCACGTGCAGGG,-0.07 kcal/mol
19,TGTCACACGTGATTAG,0.14 kcal/mol
20,TAGTGCACGTGTGAGA,0.18 kcal/mol
21,AGGGGCACGTGAGAGT,0.16 kcal/mol
